{
  "source": "PubChem BioAssay AID1569",
  "about": "(National Center for Advancing Translational Sciences (NCATS), 2009)",
  "note": "The shares of active, inactive and inconclusive entries below differ from those in the screen. Potencies of inconclusive entries are doubtful fits and often do not repeat. Active and inactive are the calls of the source. Calls follow the shape of the dose curve; as a rule, active = well fitted inhibition curve with a large enough effect; inconclusive = small, poorly fitted or top-dose-only effect, or effect the other way, or another doubt; inactive = no such curve, though single readings can be large or run the other way. Potency is read from the fitted curve at half-maximal effect; tags tell the direction and shape of the fitted curve.",
  "data": [
    {"experiment": "Confirmation Concentration-Response Assay for lipid storage modulators; also: nearly all actives have a fitted effect of over 80% in size;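 as to activity change, negative = inhibition: -100% = full block of lipid deposition by 20 µM Triacsin C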", "settings": "Drosophila S3 cells, lipid droplet BODIPY/CellTracker ratio, 18-24 h; activity change, negative = inhibition: at 46.1 µM (top of the series)", "method_in_brief": "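Cells at 5,000/well received compound as a titration plus oleic acid (added as 400 uM solution) and were incubated 18–24 h at 24 °C. BODIPY 493/503 lipid signal and CellTracker Red cell count were read by 488-nm laser-scanning cytometry. Activity was normalised to 20 uM Triacsin C.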", "values": [
      {"compound": "CCCCCC(=O)Nc1ccc2oc(-c3cccnc3)nc2c1", "Potency": "inconclusive: 8.88 µM [activator, partial curve]"},
      {"compound": "O=C(CSc1nc2ccccc2n1CC(=O)N1CCCC1)Nc1ccc2c(c1)OCO2", "Potency": "inconclusive: 2.5 µM [activator, partial curve]"},
      {"compound": "CCOc1nc(-c2ccccc2O)nc2ccccc12", "Potency": "inconclusive: 3.97 µM [activator, full curve]"},
      {"compound": "CCCN1Cc2cccc(C(=O)NCc3ccccc3OC)c2C1=O", "Potency": "inconclusive: 1.77 µM [activator, full curve]"},
      {"compound": "COc1ccc(NC(=O)c2oc3ccccc3c2C)c(OC)c1", "Potency": "inconclusive: 0.791 µM [activator, full curve]"},
      {"compound": "O=C(NC1CCCc2c1cnn2-c1ccc(F)cc1F)c1ccccn1", "note": "(stereo not given)", "Potency": "active: 0.0112 µM"},
      {"compound": "CCOC(=O)c1ccccc1NC(=O)COC(=O)c1ccccc1C(=O)N(C)c1ccccc1", "Potency": "inconclusive: 1.41 µM [activator, full curve, poor fit]"},
      {"compound": "Cc1cccc(NC(=O)COc2cccc3c2CCN(C)C3=O)c1", "Potency": "inconclusive: 4.99 µM [activator, partial curve]"},
      {"compound": "COCCCNC(=O)Cn1c(=O)n(Cc2ccc(C(=O)NCCc3ccc(OC)c(OC)c3)cc2)c(=O)c2ccccc21", "Potency": "inconclusive: 31.5 µM [activator, partial curve, poor fit]"},
      {"compound": "CCOc1ccc(CCNC(=O)COC(=O)c2cccc(S(=O)(=O)N3CCCCC3)c2)cc1OCC", "activity change, negative = inhibition": "inactive: -7.33%"},
      {"compound": "N#Cc1ccsc1NC(=O)CN1CCN(S(=O)(=O)c2ccccc2C(F)(F)F)CC1", "Potency": "active: 1.25 µM"},
      {"compound": "O=c1[nH]cnc2c1sc1nc(C(F)F)cc(-c3ccccc3)c12", "Potency": "inconclusive: 2.81 µM [activator, full curve]"},
      {"compound": "CCOc1ccc(CCNC(=O)COC(=O)c2ccc(F)c(S(=O)(=O)N3CCOCC3)c2)cc1OCC", "Potency": "inconclusive: 7.91 µM [falling, partial curve]"},
      {"compound": "CCOc1ccc(CCNC(=O)CSc2nn(-c3ccc(C)c(Cl)c3)c(=S)s2)cc1OCC", "Potency": "inconclusive: 14.1 µM [falling, partial curve, poor fit]"},
      {"compound": "Cc1cccc(C)c1OCc1nnc(SCC(=O)Nc2nccs2)n1-c1ccccc1", "Potency": "inconclusive: 0.996 µM [activator, full curve]"},
      {"compound": "O=C(Nc1ccc2c(c1)OCO2)N1CCN(c2ccccc2Cl)CC1", "Potency": "inconclusive: 0.996 µM [activator, full curve, poor fit]"},
      {"compound": "Clc1cccc(-c2cc3nc4c(c(N5CCOCC5)n3n2)CCCC4)c1", "Potency": "inconclusive: 0.315 µM [activator, full curve]"},
      {"compound": "CCCCc1c(O)nc(SCC(=O)NCCc2ccc(OC)c(OC)c2)[nH]c1=O", "activity change, negative = inhibition": "inactive: 22%"},
      {"compound": "COc1cccc2c1nc(C)c1cc(C)oc12", "Potency": "inconclusive: 14.1 µM [activator, partial curve]"},
      {"compound": "Cc1ccc(-c2cn3cccnc3n2)cc1NC(=O)c1ccc(Br)o1", "Potency": "inconclusive: 5.6 µM [activator, partial curve]"},
      {"compound": "CCOc1ccc(CCNC(=O)COC(=O)/C=C/c2ccc(OCC#N)c(OC)c2)cc1OCC", "Potency": "active: 3.15 µM"},
      {"compound": "CC1CCCCN1C(=O)COC(=O)c1cc(-c2cccs2)nn1-c1ccccc1", "note": "(stereo not given)", "Potency": "inconclusive: 12.5 µM [activator, partial curve, poor fit]"},
      {"compound": "CCOc1ccc(CCNC(=O)COC(=O)c2cccc(N(C)C)c2)cc1OCC", "Potency": "active: 0.396 µM"},
      {"compound": "Cc1cc(C)c(C)c(S(=O)(=O)N2CCN(C(=O)c3ccc4c(=O)n5c(nc4c3)CCC5)CC2)c1C", "activity change, negative = inhibition": "inconclusive: 188% [activator]"},
      {"compound": "COc1ccc(CCNC(=O)CCN2C(=O)C3CC=CCC3C2=O)cc1OC", "note": "(stereo not given)", "Potency": "inconclusive: 11.2 µM [activator, full curve, poor fit]"},
      {"compound": "Nc1c(C(=O)Nc2ccc(S(=O)(=O)N3CCCC3)cc2)sc2nc3ccc(OC(F)(F)F)cc3cc12", "Potency": "active: 8.88 µM"},
      {"compound": "Cc1ccc2nc(-c3ccccn3)cc(C(=O)N3CCN(c4ncccn4)CC3)c2c1", "Potency": "inconclusive: 1.25 µM [activator, partial curve]"},
      {"compound": "COc1ccc(/C=N/NC(=O)CSc2ccccc2)cc1OC", "Potency": "inconclusive: 7.91 µM [activator, partial curve]"},
      {"compound": "CCCCNc1cc(C)nc(NCc2ccccc2)n1", "Potency": "active: 7.91 µM"},
      {"compound": "COc1ccc(/C=C/C(=O)NCCc2ccc(OC)c(OC)c2)cc1", "Potency": "active: 5.6 µM"}
    ]}
  ]
}
